# Results as given in PubChem BioAssay AID1347417 (National Center for Advancing Translational Sciences (NCATS), 2020).
# Hit rate of the full screen: of about 120,000 compounds, about 5,300 (4.4%) were called active. The inconclusive results got no clear call from the source; some entries with a clear call stand among them for comparison. The call rests on the fitted dose curve; in most records, active means well fitted inhibition curve with a large enough effect; inconclusive means small, poorly fitted or top-dose-only effect; inactive means no such curve, though single readings can be large or run the other way. Potencies beside an inconclusive call are fits to weak or partial responses and may not hold up.
# Test: qHTS Primary assay for Inhibitors of Plasmodium falciparum Dd2 growth in vitro; further: nearly all actives have a fitted effect of over 65% in size
# Conditions: P. falciparum Dd2 growth, SYBR Green, 72 h; series mostly up to 28.9 µM
# Method in brief: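 Infected erythrocytes (Dd2, 0.3% parasitemia, 2.5% hematocrit final) are added to compound in RPMI-1640/Albumax II medium, grown 72 h at 37C in low oxygen, then lysed with saponin/Triton-X containing SYBR Green and read by fluorescence.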
# Potency means the concentration at half of the fitted maximal effect; tags describe the fitted curve by direction and shape.
row,SMILES,Potency
1,COCCNC(=O)N1CCc2c(sc3ncnc(N(C)C)c23)C1,"inconclusive: 7.08 µM [inhibitor, partial curve, poor fit]"
2,CCn1ccnc1CN1CCCC1C(=O)Nc1ccc(-c2cccc(F)c2)cc1 (centres undefined),"inconclusive: 17.8 µM [inhibitor, single point]"
3,O=C(c1cccc(Cl)c1)N1c2ncnn2C2(CCCCC2)[C@@H]2CCCC[C@@H]21,"inconclusive: 17.8 µM [inhibitor, single point]"
4,Cc1c(CNC(=O)c2ccc(C3CCNC3)cc2)oc2ccccc12 (centres undefined),"inconclusive: 17.8 µM [inhibitor, single point]"
5,CCc1cc(C(=O)N2CCC3(CCC(=O)N(CCc4cnc[nH]4)C3)CC2)cs1,"inconclusive: 20 µM [inhibitor, single point]"
6,Clc1cccc(CN2CC[C@H](c3nc4ccccc4[nH]3)C2)c1,inactive
7,CC1=C(C(=O)OC(C)C)C(c2ccc(Cl)cc2)N2C(CC(=O)N3CCCC3)=CSC2=N1 (centres undefined),"inconclusive: 3.98 µM [inhibitor, partial curve, poor fit]"
8,CN(C)c1ncnc2sc3c(c12)CCN(Cc1ccc2cc[nH]c2c1)C3,active: 1.26 µM
9,CCOC(=O)C1CCCN(C(=O)c2ccc3c(c2)sc2nc(-c4ccc(C)cc4C)cn23)C1 (centres undefined),"inconclusive: 7.08 µM [inhibitor, partial curve]"
10,O=C(Nc1nc2n(n1)C(c1ccccc1)C=C(c1ccc(Cl)cc1)N2)c1ccco1 (centres undefined),"inconclusive: 12.6 µM [inhibitor, single point]"
11,COc1cccc(Cn2c(SCc3ccc(C(=O)N4CCCCC4)cc3)nc3ccncc32)c1,"inconclusive: 10 µM [inhibitor, single point]"
12,CC(C)(Oc1nn(Cc2cccc(Cl)c2)c2ccccc12)C(=O)N1CCCC1,"inconclusive: 3.16 µM [inhibitor, partial curve]"
13,CCOc1ccc(-c2nonc2NC(=O)c2oc3cc(C)ccc3c2C)cc1OCC,"inconclusive: 7.94 µM [inhibitor, partial curve, poor fit]"
14,CCc1cc(=O)n(CC(=O)Nc2cc(C)cc(C)c2)c(N2CCOCC2)n1,"inconclusive: 2.51 µM [inhibitor, single point]"
15,O=C(CC1CCCCC1)N1CCC2(CC1)NC(=O)N(c1ccccc1)N2,inactive
16,FC(F)(F)Oc1cccc(CN2CCNc3cc(Nc4cccnc4)ncc3C2)c1,active: 5.01 µM
17,CC(C)c1ccc(CN2CC(CNC(=O)C3CCOCC3)C3(C2)CN(c2ccccc2)C3)cc1 (centres undefined),inactive
18,O=c1cc(C2CC(NC3CCC4(CCNCC4)CC3)C2)nc(C2CC2)[nH]1 (centres undefined),inactive
19,CC(C)[C@@H]1CN(C(=O)CCn2ccc(=O)[nH]c2=O)C[C@H]1NS(C)(=O)=O,"inconclusive: 0.112 µM [inhibitor, full curve, poor fit]"
20,Cc1cccc(C)c1-n1ncc(C(=O)N2CCN(c3ncccn3)CC2)c1C1CCN(C(=O)OC(C)(C)C)CC1,"inconclusive: 14.1 µM [inhibitor, single point]"
21,CCCn1cc(S(=O)(=O)c2cc(C)ccc2C)c(=O)c2cc(F)c(N3CCN(CC)CC3)cc21,"inconclusive: 11.2 µM [inhibitor, single point]"
22,COc1ccc(NC(=O)N2CCOC(c3ccc(Cl)cc3)C2)c(C)c1 (centres undefined),"inconclusive: 6.31 µM [inhibitor, partial curve, poor fit]"

row,SMILES,Potency
1,O=C1N(C2CCCCC2)C[C@H]2CN(Cc3ccc(C(F)(F)F)cc3)CCN12,"inconclusive: 11.2 µM [inhibitor, partial curve]"
2,CN1CCN(Cc2ccc(-c3ccc(C(C)(C)C#N)cc3)nc2)CC1,"inconclusive: 10 µM [inhibitor, single point]"
3,COc1ccc(CNc2cc3c(cn2)CN(C)CCN3C)cc1OC,inactive
4,O=C(NC[C@H]1O[C@H](Cc2cc(-c3ccc(F)cc3)on2)CC[C@@H]1O)NC1CCCCC1,"inconclusive: 0.794 µM [inhibitor, partial curve, poor fit]"
5,CCc1ccccc1NC(=O)c1sc(-n2nc(C)c(Cc3ccccc3)c2C)nc1C,"inconclusive: 11.2 µM [inhibitor, single point]"
6,COCCOC1CCOC2(CCN(C(=O)CCc3ccc(OC)cc3)CC2)C1 (centres undefined),"inconclusive: 11.2 µM [inhibitor, partial curve, poor fit]"
7,c1ccc(-c2ccc(CNCC3CCCO3)o2)cc1 (centres undefined),"inconclusive: 11.2 µM [inhibitor, partial curve, poor fit]"
8,CCC(C)n1c(=N)c(C(=O)NC2CCCCC2)cc2c(=O)n3ccccc3nc21 (centres undefined),"inconclusive: 11.2 µM [inhibitor, single point]"
9,COc1ccc(C2=Nc3ccc(OC(F)(F)F)cc3NC(c3cccnc3)=N2)cc1,"inconclusive: 11.2 µM [inhibitor, single point]"
10,Cc1ccc(CNC(=O)c2cc3ccc4cccnc4c3[nH]2)cc1,"inconclusive: 12.6 µM [inhibitor, partial curve, poor fit]"
11,Cn1cnc(C(=O)NCC(=O)N2CCCCCNC(=O)CC2c2ccccc2)c1 (centres undefined),"inconclusive: 0.398 µM [inhibitor, full curve, poor fit]"
12,COc1cc(Cl)c(C)cc1NC(c1ccccc1)c1nnc(-c2ccccc2Cl)o1 (centres undefined),"inconclusive: 10 µM [inhibitor, partial curve, poor fit]"
13,CCc1[nH]nc(C(=O)N2CCC(c3[nH]ncc3-c3cccc(C)c3)CC2)c1C,inactive
14,COCc1ccc2c(c1)c(OC(C)(C)C(=O)Nc1ccccn1)nn2CCC(C)C,inactive
15,CCN1CCN(Cc2c(O)ccc3c(=O)c(Oc4ccccc4C(C)C)c(C(F)(F)F)oc23)CC1,active: 0.0631 µM
16,CC1CCN(CC2CCCN(S(=O)(=O)c3ccc(F)cc3)CC2)CC1 (centres undefined),"inconclusive: 0.251 µM [inhibitor, partial curve, poor fit]"
17,Cn1cc(CN2CCC(C3CCN(S(C)(=O)=O)CC3)C2)c2ccccc21 (centres undefined),active: 3.55 µM
18,COc1cc(NC(=O)CSc2nc(-c3ccc(C(C)C)cc3)no2)cc(OC)c1,active: 0.708 µM
19,O=C(C1CCC1)N1c2ccccc2CC1c1noc(C2CCOCC2)n1 (centres undefined),"inconclusive: 17.8 µM [inhibitor, single point]"
20,CC(C)[S+](=O)([O-])N1CCN(c2ccc(C=O)cc2)C(=O)C1,inactive
21,CNC(=O)CCn1ncc2cc(OCc3ccccc3-c3ccccc3COC)ccc21,active: 3.98 µM
22,Cc1cc2oc(C(=O)N(Cc3ccco3)Cc3ccccc3Cl)c(C)c2cc1C,"inconclusive: 17.8 µM [inhibitor, single point]"

row,SMILES,Potency
1,Cc1ccc(-c2noc([C@@H]3C[C@@H](O)CN3Cc3nc4ccccc4n3C)n2)cc1F,"inconclusive: 31.6 µM [inhibitor, single point]"
2,Cc1cc(F)ccc1OCC(=O)c1ccc2c(c1)N(CC(=O)NC1CCCCC1)C(=O)CO2,inactive
3,CCOCCc1nn2c(=O)cc(COC(=O)c3ccc(NC(=O)C(C)(C)C)cc3)nc2s1,"inconclusive: 6.31 µM [inhibitor, partial curve, poor fit]"
4,O=C1[C@@H]2C[C@@H](CN2C(=O)c2ccccn2)Oc2ccccc2N1Cc1ccc(OC(F)(F)F)cc1,"inconclusive: 8.91 µM [inhibitor, partial curve]"
5,CCc1cccc(C)c1NC(=O)c1cnn(-c2ccc(OC)cc2)c1C1CCN(C(=O)OC(C)(C)C)CC1,"inconclusive: 17.8 µM [inhibitor, single point]"
6,CCn1ncc(N2CCCC(CC(=O)N3CCCCCC3)C2)cc1=O (centres undefined),inactive
7,Cc1ccc(C2c3[nH]c4ccccc4c3CCN2C(=O)CSCc2ccc(F)cc2)cc1 (centres undefined),"inconclusive: 14.1 µM [inhibitor, single point]"
8,O=C1[C@@H]2C[C@@H](CN2C(=O)c2cccnc2)Oc2ccccc2N1Cc1ccc(OC(F)(F)F)cc1,"inconclusive: 10 µM [inhibitor, single point]"
9,CN1C[C@@H](NC(=O)c2cccs2)C[C@H]1c1nc(-c2ccc(F)cc2)no1,"inconclusive: 12.6 µM [inhibitor, single point]"
10,Cc1ccc(C(=O)N2CCCN(Cc3ccncc3)C(c3ccccc3)CC(=O)NCC2)s1 (centres undefined),"inconclusive: 12.6 µM [inhibitor, single point]"
11,CCc1ccccc1N(C)C(=O)c1sc2nc3n(c(=O)c2c1C)CCCCC3,"inconclusive: 11.2 µM [inhibitor, partial curve, poor fit]"
12,CC1CCCN(CCCNC(=O)c2cc3c(Cl)nc4ccccc4c3s2)C1 (centres undefined),active: 4.47 µM
13,O=C1c2cc(N3CCOCC3)nc(-c3ccc(F)cc3)c2CN1CC1CC1,"inconclusive: 14.1 µM [inhibitor, partial curve, poor fit]"
14,CC(C)n1cc2cc(C(=O)NCc3cccnc3)sc2c1,inactive
15,CN(CCO)CC1(O)CCCN(Cc2cccc(F)c2F)C1=O (centres undefined),inactive
16,Fc1ccc(CN2CC[C@H](c3nc4ccc(C(F)(F)F)cc4[nH]3)C2)cc1F,"inconclusive: 1 µM [inhibitor, full curve, poor fit]"
17,Cc1ccncc1C(=O)N1CCC2(CC1)c1[nH]c3ccccc3c1CCN2C,inactive
18,O=C(NCc1cccs1)c1ccc(CSc2nc3ccncc3n2Cc2ccccc2F)cc1,active: 12.6 µM
19,Cc1nn(C)c(C)c1CCNC(=O)Nc1ccccc1C(F)(F)F,inactive
20,Cc1cc(=O)oc2cc(OCC(=O)NC3CCCc4c3[nH]c3ccccc43)ccc12 (centres undefined),"inconclusive: 12.6 µM [inhibitor, single point]"
